Results published in PubChem BioAssay AID488969 (Vanderbilt High Throughput Screening Facility, 2010).
Whole data set: some 110,000 compounds, median “z-score” near -0.1, cut for the highest 2% near 2. The list shows a part of the results. Calls of active or inactive are those of the source.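 How the source made its calls: active means z-score in the third read window above 3 or below -3; inactive means the rest.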

biological target: Metabotropic glutamate receptor 8 (Rattus norvegicus) (UniProt P70579); assay: rat mGluR8 modulators via GIRK flux, primary screen, cell-based, thallium flux, HTS (AID 488969); conditions: HEK293 rat mGluR8, GIRK (G protein-gated inwardly rectifying potassium channel) thallium flux, FluoZin2; at 10 µM; stronger effect = higher value; submaximal glutamate (EC20) added with thallium
Sequence of UniProt P70579 (P70579 whole entry, looked up): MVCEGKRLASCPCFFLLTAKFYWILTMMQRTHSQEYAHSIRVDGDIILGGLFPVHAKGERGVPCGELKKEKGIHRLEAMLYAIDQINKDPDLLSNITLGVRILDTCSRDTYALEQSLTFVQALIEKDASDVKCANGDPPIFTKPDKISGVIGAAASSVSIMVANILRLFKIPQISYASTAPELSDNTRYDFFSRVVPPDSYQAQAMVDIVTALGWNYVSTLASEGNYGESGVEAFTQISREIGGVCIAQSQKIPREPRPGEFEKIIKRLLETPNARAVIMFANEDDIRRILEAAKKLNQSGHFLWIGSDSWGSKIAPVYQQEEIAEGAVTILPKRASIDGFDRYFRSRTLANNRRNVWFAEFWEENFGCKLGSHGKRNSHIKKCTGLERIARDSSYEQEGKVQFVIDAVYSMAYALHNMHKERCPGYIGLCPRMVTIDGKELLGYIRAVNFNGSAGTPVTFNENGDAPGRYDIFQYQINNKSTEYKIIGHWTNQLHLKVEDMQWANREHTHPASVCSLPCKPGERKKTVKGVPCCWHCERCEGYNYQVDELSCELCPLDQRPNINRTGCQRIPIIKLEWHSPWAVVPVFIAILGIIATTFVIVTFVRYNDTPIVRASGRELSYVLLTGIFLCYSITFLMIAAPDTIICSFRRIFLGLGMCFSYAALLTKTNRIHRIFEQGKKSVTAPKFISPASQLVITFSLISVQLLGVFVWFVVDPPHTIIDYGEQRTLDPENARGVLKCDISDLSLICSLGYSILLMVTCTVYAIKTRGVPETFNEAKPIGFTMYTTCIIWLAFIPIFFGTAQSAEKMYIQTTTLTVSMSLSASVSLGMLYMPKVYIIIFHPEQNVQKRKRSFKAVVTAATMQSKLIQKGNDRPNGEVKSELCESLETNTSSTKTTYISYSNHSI

Row | SMILES | z-score
1 | CCN(CC(=O)Nc1ccccc1C(=O)OC)S(=O)(=O)c1ccc(OC)cc1 | -0.218
2 | Cc1ccc(C(=O)Nc2ccc3nc(C)sc3c2)s1 | -0.372
3 | CC(=O)C(=[N+]=[N-])C(=O)NCc1ccccc1 | 0.107
4 | O=C1CC(C(=O)Nc2ccccc2)S/C(=N\N=C\c2ccco2)N1 (stereo unspecified) | -0.194
5 | O=C(CCSc1nnnn1-c1ccccc1)N1CCOCC1 | 0.429
6 | Cn1cccc1C(=O)C(=O)Nc1ccccc1 | -0.302
7 | COc1ccc(N=C2S/C(=C\c3ccc(N4CCOCC4)o3)C(=O)N2CCc2c[nH]c3ccccc23)cc1 | -0.024
8 | C/C(=N\NC(=O)COc1ccccc1F)c1cc2ccccc2o1 | -0.0133
9 | COc1cc(-c2nnc(CSc3nc4ccccc4s3)o2)cc(OC)c1OC | active: -3.36
10 | Cc1ccc(-c2cc(N)on2)cc1 | 0.0101
11 | O=c1c2ccccc2[nH]c(=S)n1C1CCCCC1 | active: 12.5
12 | O=S(=O)(NC1CCCC1)c1cccc(-c2nnc(-c3ccccc3)o2)c1 | 1.25
13 | O=C(Oc1cccc(NC(=O)c2ccco2)c1)c1ccc(Br)c(S(=O)(=O)N2CCCCC2)c1 | 0.0261
14 | CN(C)c1ccnc(-n2cccc2/C=N/OCc2cccc(F)c2)c1C#N | -0.0405
15 | Cc1onc(-c2c(Cl)cccc2Cl)c1C(=O)Nc1ccc2c(c1)OCCO2 | -1.08
16 | Cc1cc(C)c[n+](-c2nc3ccccc3nc2[N-]S(=O)(=O)c2ccc(Br)s2)c1 | 0.032
17 | O=c1c2ccccc2sn1-c1ccccc1 | 0.323
18 | Cc1nc(-c2ccccc2)cn2c1nc1ccccc12 | -0.124
19 | CCOC(=O)c1c(C)n(CCNC(C)=O)c2ccc(O)cc12 | -0.319
20 | CCc1ccc(CNC(=O)C(=O)NCCc2ccc(OC)c(OC)c2)cc1 | -0.0536
21 | COc1ccc(OC)c(N(CC(=O)Nc2cccnc2)S(=O)(=O)c2ccccc2)c1 | -0.398
22 | COc1ccc(OC)c(S(=O)(=O)Nc2ccc(F)cc2)c1 | -0.221
23 | COc1cc(OC)c(C(=O)Nc2ccc(S(=O)(=O)Nc3ncccn3)cc2)cc1OC | -0.186

Row | SMILES | z-score
24 | O=C(Nc1ccc2c(c1)OCO2)C1CCN(C(=O)CSc2ncnc3ccccc23)CC1 | -0.185
25 | Cc1ccccc1C1CC(c2ccc(F)cc2)Nc2nc(N)nn21 (stereo unspecified) | -0.217
26 | O=[N+]([O-])c1cc(/C=N\Nc2nccs2)ccc1O | -0.49
27 | C/C(=N\NC(=O)C(=O)Nc1ccc(C)c(Cl)c1)c1ccncc1 | -0.346
28 | CCCP(=O)(CCC)CCP(=O)(c1ccccc1)c1ccccc1 | 0.789
29 | CCOC(=O)c1cnc(SC)nc1Sc1ccc(Cl)cc1Cl | -0.0741
30 | N#CCSc1nc2cc(C(=O)N3CCCC3)ccc2c(=O)n1Cc1ccccc1 | -1.85
31 | Cc1ccc(CSc2nc3ccccc3cc2C=O)cc1 | -0.338
32 | COc1ccc(N2CCN(S(=O)(=O)c3ccc4c(c3)CCCC4)CC2)c([N+](=O)[O-])c1 | -0.261
33 | Cc1cnc(C(=O)Nc2ccc(C)c(S(=O)(=O)N(C)C)c2)cn1 | -0.281
34 | O=C(Cn1c2ccccc2c(=O)c2ccccc21)Nc1cccc(F)c1 | -0.214
35 | CCOc1cc(C(=O)Nc2ccc3c4c(cccc24)C(=O)N3CC)cc(OCC)c1OCC | -0.652
36 | CC(C)C(NS(=O)(=O)c1cccs1)C(=O)NCCN1CCN(c2ccccc2)CC1 (stereo unspecified) | 1.05
37 | CC(=O)c1ccc(NC(=O)c2cc(CC(C)C)on2)cc1 | 0.32
38 | Cn1c(=O)c2c(nc(CN3CCOCC3)n2CCc2ccccc2)n(C)c1=O | -0.0314
39 | CCC(CC)C(=O)c1c[nH]c(C(=O)NCCCN2CCOCC2)c1 | 0.0435
40 | CCOC(=O)c1cc(OCC(=O)NC(C)C(C)C)cc(C(=O)OCC)c1 (stereo unspecified) | -0.0698
41 | CCC(=O)n1nc(-c2cccnc2)nc1NCc1ccc(OC)cc1 | active: -5.08
42 | Cn1c(=O)c2c(ncn2CC(=O)OCC(=O)NCc2ccc(Cl)cc2)n(C)c1=O | 0.353
43 | CCCSC1=C(C#N)C(c2ccccc2OCC)CC(=O)N1 (stereo unspecified) | -0.352
44 | N#Cc1c(-c2ccccc2)c(-c2ccccc2)nn(CC(=O)NNC(=O)Nc2ccccc2)c1=O | -0.197
45 | Cc1nn(-c2ncc(C(F)(F)F)cc2Cl)c(=O)n1-c1cccc(Cl)c1 | 0.00217
46 | CC1=NN(c2ccccc2)C(=O)C1C(=O)c1ccccc1 (stereo unspecified) | -0.168

Row | SMILES | z-score
47 | O=c1cc(CO)oc(C(Nc2ccccn2)c2ccccc2F)c1O (stereo unspecified) | -0.416
48 | Cc1cc2c(c(C)nn2-c2ccccc2)c(=O)o1 | -0.468
49 | CCN(CC)Cc1c(O)ccc2occ(C(=O)c3ccc(OC)cc3)c12 | 0.745
50 | Cc1ccc(C(=O)COC(=O)C2CC(=O)N(c3nc(-c4ccccc4)cs3)C2)cc1 (stereo unspecified) | 0.0531
51 | Clc1ccc(-n2ncc3c(NCc4ccc5c(c4)OCO5)ncnc32)cc1 | -0.426
52 | Cc1ccccc1NC(=O)c1cccc(N2C(=O)C3C4CCC(C4)C3C2=O)c1 (stereo unspecified) | -0.0474
53 | CN1C(=O)CS(=O)c2ccc(C(=O)NCCC3=CCCCC3)cc21 (stereo unspecified) | -0.266
54 | Cc1cc(S(=O)(=O)N(Cc2ccc3c(c2)OCO3)CC2CCCO2)ccc1-n1cnnn1 (stereo unspecified) | -0.688
55 | CCOC(=O)C1(S(=O)(=O)c2ccccc2)CCN(Cc2ccc(Cl)cc2)CC1 | -0.772
56 | CCCCNC(=O)CCCCCNS(=O)(=O)c1ccc(OC)cc1 | 1.14
57 | CCOC(=O)c1c(-c2ccco2)csc1NC(=O)CSc1nnc(N)s1 | -0.759
58 | Cc1cc(C(=O)NCCc2ccccc2)ccc1[N+](=O)[O-] | -0.203
59 | CCCn1c(SCC(=O)N2c3ccccc3CC2C)nnc1-c1ccco1 (stereo unspecified) | -1.44
60 | CC(=O)c1ccc(-n2c(C)ccc2-c2ccccc2)cc1 | -0.0353
61 | Cc1ccc(O)c(NC(=O)c2cccc(S(=O)(=O)N3CCCCC3)c2)c1 | 0.437
62 | Cc1noc(C)c1C(=O)N1CCCc2ccccc21 | -0.353
63 | CCCCOC(=O)NC1(C)CCS(=O)(=O)C1 (stereo unspecified) | 0.0533
64 | O=C(OCc1cc2ccccc2[nH]c1=O)C1CCCCC1 | -0.512
65 | Cc1cc(C)cc(C(=O)NCC(=O)OCC(=O)N2c3ccccc3NC(=O)C2(C)C)c1 | -0.138
66 | COc1ccccc1NC(=O)C(O)C(O)C(=O)Nc1ccccc1OC (stereo unspecified) | -0.417
67 | COc1ccc(NC(=O)C2CCC(=O)N2)cc1 (stereo unspecified) | 0.126
68 | COc1ccccc1OCCOCCOc1ccccc1Cl | -0.228
69 | CC(c1cccs1)N(Cc1ccco1)C(=O)Nc1ccc(Cl)c(Cl)c1 (stereo unspecified) | -0.405

Row | SMILES | z-score
70 | CCOC(=O)C1=C(C)Nc2nc(SCc3cccnc3)nn2C1c1ccc(OC)cc1 (stereo unspecified) | 0.463
71 | CS(=O)(=O)Nc1ccccc1C(=O)N1CCN(c2ccccc2)CC1 | -0.0801
72 | CCCCN(CCCC)C(=O)CN(C)S(=O)(=O)c1ccc2c(c1)n(C)c(=O)c(=O)n2C | -2.39
73 | Cc1cc(CN2C(=O)c3ccccc3C2=O)no1 | 0.104
74 | CCn1c(-c2nn(C)cc2Cl)n[nH]c1=S | 0.00751
75 | CCc1nc2ccccc2c(C(=O)OC2CCOC2=O)c1C (stereo unspecified) | -0.649
76 | Cc1ccc(NC(=S)NC(NC(=O)Cc2cccc3ccccc23)C(Cl)(Cl)Cl)cc1 (stereo unspecified) | 0.354
77 | O=C(OCc1ccccc1)/C(=C/c1ccc(Cl)cc1)NC(=O)c1ccccc1Cl | -0.0992
78 | COC(=O)c1ccc(CNC(=O)CSc2nnc(COc3ccccc3)n2C)o1 | 0.148
79 | CCOC(=O)Cc1ccc(NS(=O)(=O)c2ccc(SC)cc2)cc1 | -0.503
80 | CCc1nc(Nc2ccccc2)c2oc3ccccc3c2n1 | -0.244
81 | O=C(CSc1ccc2ccccc2c1)Nn1cnnc1 | 0.232
82 | Cc1cccc(NC2=NC(=S)N(CC#N)C23CCCCC3)c1 | 1.02
83 | CCOC(=O)c1sc(C)c2c1NC(C)(c1cccc3ccccc13)NC2=O (stereo unspecified) | -0.155
84 | Cc1ccc(-c2nc3ccccc3o2)cc1NC(=S)NC(=O)c1cc2ccccc2o1 | 2.35
85 | COC(=O)C(Cc1ccccc1)NC(=O)CSc1nc(N)cc(=O)[nH]1 (stereo unspecified) | -0.425
86 | CC(=O)c1ccc(NC(=O)C(=O)c2cn(CC(=O)N3CCCCC3)c3ccccc23)cc1 | -0.0286
87 | Cc1ccc(C)c(NC(=O)c2cnn3ccccc23)c1 | -0.0235
88 | C/C(=N\O)C(=O)NCc1ccccn1 | -0.159
89 | COc1ccc(CC(=O)NCc2ccco2)cc1OC | -0.0499
90 | O=C(CCC(=O)N/N=C/c1ccc(Br)s1)NCc1ccccc1 | -0.0306
91 | Cc1ccc(N(CC(=O)Nc2cc(C)cc(C)c2)S(=O)(=O)c2cccc3nonc23)cc1 | -0.19
92 | COC(=O)c1c(NS(=O)(=O)c2ccc(C)cc2)sc2c1CCC(C)C2 (stereo unspecified) | active: 7.28

Row | SMILES | z-score
93 | Nc1c(C(=O)NCc2ccc3c(c2)OCO3)nnn1-c1ccc(OC(F)(F)F)cc1 | -0.241
94 | Cc1ccc(C)c(S(=O)(=O)NCc2ccc(C(=O)N3CCC(Cc4ccccc4)CC3)cc2)c1 | -0.171
95 | Cc1cccc(C(=O)NC2CCN(C(=O)N3CCOCC3)CC2)c1 | 0.0214
96 | CC(=O)NNc1nc2ccccc2s1 | 0.441
97 | N#C/C(=C\c1cn(-c2ccccc2)nc1-c1cccnc1)c1nnc2n1CCCCC2 | 0.0661
98 | CCOC(=O)N1CCN(C(=O)c2ccc(Cl)c(S(=O)(=O)Nc3ccccc3)c2)CC1 | -0.348
99 | CCOc1ccc(/C=C\C(C)=N\O)cc1 | -0.142
100 | COC(=O)CCc1c(C)[nH]c(C(=O)OCc2ccccc2)c1C | -1.62
101 | Nc1cccnc1Sc1cc(Cl)c(Cl)cc1Cl | -0.499
102 | O=C(CCn1nc(-c2ccc(Cl)cc2)c2ccccc2c1=O)NCC1CCCO1 (stereo unspecified) | -0.0681
103 | O=C1CSC(c2ccco2)N1 (stereo unspecified) | 0.051
104 | N#CCCN(CCC#N)c1nnc(-c2ccccc2)s1 | -0.146
105 | Cc1ccc2[nH]c(=O)c(CNC(C)(C)C)cc2c1 | -0.199
106 | CCOC(=O)CNS(=O)(=O)CCN1C(=O)c2ccccc2C1=O | -0.0472
107 | CCCc1cn(S(=O)(=O)c2ccc(OC)cc2OC)nc1N | -0.264
108 | CS(=O)(=O)n1nc(OC(=O)c2cccc3ccccc23)cc1N | -0.66
109 | COCCN1CCN(c2c3c(nc4cc(-c5cccc(F)c5)nn24)CCC3)CC1 | -1.72
110 | CCc1ccccc1NC(=O)C1C(c2ccccc2)C1(Cl)Cl (stereo unspecified) | -0.843
111 | O=C1CC(SCCc2nc3ccccc3[nH]2)C(=O)N1c1ccc(F)c(Cl)c1 (stereo unspecified) | -0.231
